Measurements published in the RNAGym collection of RNA variant scans (doi:10.1073/pnas.2313332121).
Variants at the background level are over-represented here.

B1: TPR 5TU (parent)
chain: GGAUCUUCUCGAUCUAACAAAAAAGACAAAUCUGCCACAAAGCUUGAGAGCAUCUUCGGAUGCAGAGGCGGCAGCCUUCGGUGGCGCGAUAGCGCCAACGUUCUCAACUAUGACACGCAAAACGCGUGCUCCGUUGAAUGGAGUUUAUCAUG

Variants of: B1
Experiment: polymerase ribozyme fitness, log enrichment relative to wild type (log ratio); higher = more active; in vitro selection for triplet polymerase activity
Outline: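 The heterodimeric triplet polymerase ribozyme's subunits were each mutagenized into PCR-built libraries and transcribed. Every library was selected once, in triplicate, by annealing with a biotinylated primer, the partner subunit and triplets, incubating frozen at −7 °C, gel-excising extended constructs, capturing on streptavidin beads and running RT-PCR. Input and output libraries were Illumina-sequenced, with genotypes kept only at ≥10 input reads and ≥1 read per output. Fitness, from inverse-variance-weighted replicate averages, is the base-2 logarithm of genotype enrichment over wild-type enrichment.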

Polymerase ribozyme fitness (log ratio), -2.38:
C5G G84U

Polymerase ribozyme fitness (log ratio), -0.907:
C5U A73G C85G

Polymerase ribozyme fitness (log ratio), -2.06:
C5U A22C G83C C93U U101G C116A

Polymerase ribozyme fitness (log ratio), -0.0168:
C5U A22U C85A U135A

Polymerase ribozyme fitness (log ratio), -1.54:
C5G A41C U55A G58A A60G

Polymerase ribozyme fitness (log ratio), -3.99:
C5U A91U

Polymerase ribozyme fitness (log ratio), 0.614:
C5U A121G

Polymerase ribozyme fitness (log ratio), -2.18:
C5U A12C A40C U61A C95U

Polymerase ribozyme fitness (log ratio), -0.0507:
C5G C105U

Polymerase ribozyme fitness (log ratio), ≤ -4.2:
C5G A41C G58U G59U A64C G74U C75U C85A C96G U144C
C5G A41U A49C C87G A98G
C5G A41U U55A G84A A147C
C5G A47U A52U C69U G94A C131U
C5G A47U C85U C87G
C5G A49C C54U G84U A106C A119U G126U
C5G A52G A60G C85A C95G A97G U102A C125A
C5G A52G C87U C108G G117A
C5G A60U G74A C99A A138G A142G
C5G A64G G83U C118A A138G
C5G A64G G86A A89G G136U U151A
C5G C8A A19C C95U U102C
C5G C8A A49G G50A A137U U146C
C5G C8G C18U G68A A98U U104C U148G
C5G C8U A30U C75G U90A C96U A115G
C5G C10A G11A A30U A49C C93U G136A
C5G C10G A26C C93U A106G G140U
C5G C10G G92A C123U A138C G143A
C5G C10U A12U U31A C35U A41C C75A C108U A110G C114U C125A U135G
C5G C10U A23C G83A C99G U127C
C5G C10U C14U G42C U53A G58A A107U C118A
C5G C14A C18G A49C U77G G92A C105G G143A
C5G C14A C35U G65C A73C G92C
C5G C14A G42U U44A G83C C105G A106C U109G C132G
C5G C14G A22U G81C C118U U144C
C5G C14G A30C C54A G65C C85G C93G C116G
C5G C14G C54A U61G G68C G83U A115G U127A A138U
C5G C14U A20U C27A A28U C72A C95U C132U
C5G C18G C35U G46A C87G U101A C129A U134G
C5G C18G G65C A91C
C5G C18U C79A C87U U145A
C5G C27A A49C C79A A91U C105A
C5G C27G A29U A40C G67C C96U C149G
C5G C27U A29C C76A G94A C96G A110G U111G G136U
C5G C27U U45G C95U U101C C118A
C5G C27U U53G C54G A142G
C5G C32A C57U C99U
C5G C32A C76A U109G G141C
C5G C32A C85U U134G
C5G C32U A91G A115G
C5G C32U U55G G74U G83C A91G U145G A150U
C5G C35U A37G A49C A73U G83C
C5G C35U G59C C87U G100U C125G G133A U145C
C5G C35U U77G C87A U104G
C5G C38G G86C G117U G143A
C5G C43G G94A
C5G C51A C96G A107G
C5G C54A G58C A73G C79A C87U C116A A138G
C5G C54G G70U U77G G84U C132U
C5G C54G U56G C95U C125U C129A G133U
C5G C54U A91U C93U G117A
C5G C57G G67U C79A A91U C108G U130G G143C
C5G C75U C85A G94A C99A C123A G143U
C5G C87G C96A A110G
C5G C93A A110G U135A G152U
C5G G11C C36U A110G C118U U135C G143C
C5G G11C U56A U78G G83A C129U
C5G G11U A19C C96U A113G G124A
C5G G34C C57U A66C C75U C95A C123A U134G G152A
C5G G34C C76A C85U C118U G140A
C5G G42A C87A C99U C108A U151G
C5G G46C G59C U61G G70A G92A A121U
C5G G48A U61G G70C G83C G88C C131G A142C G143A
C5G G48C U77A C85A G100A C103G C125A
C5G G50C G58A C96U G124U
C5G G58C A60G C63A C132U U135G
C5G G59A G71A G84A A91G
C5G G59C A89U G92A C93U C95A G143C
C5G G59C G71A U102A A115G C123U
C5G G62U A66G G68C G92A U104G G140U
C5G G67U G70C G86A C132G
C5G G68C C93U C99G C108G U145C
C5G G70C G92U C129U
C5G G71U C114U C131G G133U C149A
C5G G94A C105G C116A G141C
C5G G100A C116U
C5G U6A C35A A49C U55A C76G C85A
C5G U6G A52U G65C C76U U78G C87A C103G U135A G140A
C5G U7A U104G C108G G136C A138C
C5G U7C C8U C38G G48A A60C C75A A120G U135A U146A
C5G U7G C8A A40C A52G C96A C108G G112C U127A
C5G U9A U44C U56G G84C A98U
C5G U9G A19U A21C C85A U134C
C5G U13C C51G G84C G126U U146A
C5G U15A U45G U82C G92A A150U
C5G U15C C27U G50A C95A C99G U104G C129G
C5G U15G C35G A98U A106U
C5G U31G A40U A47U G68A A73G C96A C99U U111A
C5G U44A A47U G88U U135C
C5G U44A A60C G83U C105G G124U A142C U148G G152A
C5G U44C U53A C63A G71A U90C G94U G152U
C5G U45A A73G G94A C105G C118G U135A A150G
C5G U53A U56A G68C G94A C118U U148A A150C
C5G U53G G88C U102C U134A A150C
C5G U55A G70C C85A C96U U151G
C5G U55G C79G C85U U130G
C5G U55G G88C U109A A121C
C5G U90G C93A C116G A142C
C5U A12C C85A G92C C99G C105U
C5U A12G C32U A39U G84C G92A G117C G140C
C5U A16C A17U C27U A49C U55G
C5U A16C G46C C85A A138C G152U
C5U A17G G58A G83A U109C A115U
C5U A17G U53A G70A C79U C85U A98G
C5U A17G U55G G62C G84U
C5U A19G U61G G83C G92U C96A A119C G133U
C5U A20G G50C U56C U111A
C5U A20U C57U G68A C72U G92A
C5U A21G A26U C43G C96G A98U
C5U A21U A26U A29C U82G A89C C95G C99U A138G
C5U A22U U44G C93G
C5U A23C C35U C54U U77G G83A G92A C125G
C5U A23U A24C G46A C96U A137U
C5U A23U A28U C105G A120U U148A
C5U A24C A30U G34A A49C C95G A119C C123U
C5U A24G C38U G58C G59C C69U C85A C129A U135G G143C U145A U148A
C5U A24U C27G G58C C76U G80A C85U
C5U A24U C27G U53G C95U G100A
C5U A29C G34A A37C U45G U61A C69A C87G
C5U A29C G46C U90G C116U A150U
C5U A29G G94U G124A
C5U A29G U45A G50A G86A A110G A119U
C5U A30G A52U C76G G94A C118U U148A
C5U A30U C57A G59A C75G
C5U A37U G50A A60G G83C C85U G140C
C5U A39U C51U U56G A66G C87A
C5U A41C U44A A49C U55A A64U C93G C95U C118U G126A
C5U A41C U53A U55A U56A G94U A122G
C5U A52C U61A C76A G88C
C5U A52U A64C G70C C85A C116G A122U C125U A150G
C5U A64U C93U A138G
C5U C8A C18G A26C C79G G84A C105G G128U
C5U C8G A52U C87U U101G U127C
C5U C10A A12G C85A C105U C132U U139A G143C
C5U C10A A22C A29C C35U A40C C87G C95A
C5U C10G G84U C99G A147C
C5U C14G A21G A41C G42A U56C C72U G88A U104G
C5U C14G C93U G143C U148C
C5U C14G G34U G86U A98G C132U
C5U C14U A19U C76U G84A G92A U101A G124A
C5U C18U A30C C35A C79A A91U A97C C99A
C5U C18U C76G C105U U148A
C5U C27U C63U C79A C85U G86A U102A
C5U C32A A91U A97C
C5U C32A C116U G124C
C5U C35A C54U C96U U104C
C5U C36U A39C G112U A113U C125U
C5U C38A C75A G88C A91U C114U
C5U C57U A60C G62A G65A G152A
C5U C85G A137C

Polymerase ribozyme fitness (log ratio), -2.55:
C5G C93A

Polymerase ribozyme fitness (log ratio), -1.81:
C5G A52G G80A

Polymerase ribozyme fitness (log ratio), -3:
C5U C38G C57U G84U A106C

Polymerase ribozyme fitness (log ratio), -2.12:
C5U A20C G59A A60G C69A A98G

Polymerase ribozyme fitness (log ratio), -1.02:
C5U A41U G83A

Polymerase ribozyme fitness (log ratio), -3.97:
C5G C8U A12U C27G G59C A66G U78C U101A C125G C131A U139C

Polymerase ribozyme fitness (log ratio), -2.74:
C5G G50U G81C G92C G143A

Polymerase ribozyme fitness (log ratio), -0.606:
C5G G141C
